This is one part of the list.
T1: UNK ZnF1-3 (human, UniProt Q9C0B0 31-174)
T1 sequence: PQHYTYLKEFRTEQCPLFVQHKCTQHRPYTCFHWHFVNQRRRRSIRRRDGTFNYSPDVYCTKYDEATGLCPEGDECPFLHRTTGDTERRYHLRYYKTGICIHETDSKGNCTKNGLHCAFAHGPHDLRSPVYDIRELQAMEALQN

B1: chr3:10015032:10015033:+_ENSMUSG00000027533_ENSMUST00000029046|mus_mus|mus_mus_mus_hu_True|88_108 (ssRNA)
RNA: GGGAGUUCUACAGUCCGACGAUCGUUGUUGCCAUCACAAGUGAUGAUACAGUCUGGCUUGGCCAUUGCGCCCAUUUUUCGCAAAGCUAUUCCCACUCCUAGCUCCUUCAUGUAUUCAUCAAAGCCUUUGCUGUCCACCAGGCGCAACAGAGGAUUGAGCAUCA
B2: chr8:131229317:131229318:+_ENSMUSG00000025809_ENSMUST00000090006|mus_hu|FALSE|FALSE (ssRNA)
RNA: GGGAGUUCUACAGUCCGACGAUCUGAGCAAACACACAGCAAACUGAACUGAUCAGUCCAAUCCAGAAAAUUGGUUGUAAAUUCAUCUUUUCCGCGCGGCGUCCGGGGCCCGGCGCGGUGGGCUCGGGCCUGCUGUUCCGCGACCAACAGAGGAUUGAGCAUCA
B3: chr8:117878989:117878990:-_ENSG00000164754_ENST00000297338|hu_hu|hu_hu_hu_mus_True|38_98 (ssRNA)
RNA: GGGAGUUCUACAGUCCGACGAUCCCAGAGGCCCUCGUUUACUGAGAACAAAAUGUGCGUAGAACAUUUUUCUUAUUUGCUAUGAAAUAAGAAGAAAACCUUGCUCUGGCGGGGAGCCGGGAGGGGUGGGUGGCCCGGGGAGGGCAACAGAGGAUUGAGCAUCA
B4: 122055103_122057333_1646_CDS_ENSMUSG00000031835_ENSMUST00000081381|mouse|control|control (ssRNA)
RNA: GGGAGUUCUACAGUCCGACGAUCUACUGUGCUUACUAACAAGGUGACGGCCCCAGCGACCACUGGGGAAGCGACACUGGUCCCUGAGAGUGCACGGCAGCCCCCUUUCACACCGGAACCCCGCACUCCAGCACCAUAGGUGACCAACAGAGGAUUGAGCAUCA
B5: chr5:21408736:21408737:-_ENSMUSG00000042453_ENSMUST00000161356|mus_hu|mus_mus_mus_hu_False|8_8 (ssRNA)
RNA: GGGAGUUCUACAGUCCGACGAUCGUUGACAGAGUUGUAGAUGGUGGCUUCAUGGAACUGGAAAGGGGAGCAGCCAAUGCUGUUAGAAGAGGAAGGAAGGCACUGGGUCUGUACGAGCUGCCAGGAAUCGGACCUUGCAUCCUUCAACAGAGGAUUGAGCAUCA
B6: chr7:20150648:20150649:-_ENSMUSG00000044709_ENSMUST00000117222|mus_mus|motif|central (ssRNA)
RNA: GGGAGUUCUACAGUCCGACGAUCCUUGAAAGAAUAGGAAAUUAUGUCACUACAUCGAAGCAAGGCCUCGGCCUGUACACCGGUGGGAGUCUGCAGUUGGGAAACGUAGAAGUUGGCCACAUCCAGGUCUGUGGCUCCAAACUGCAACAGAGGAUUGAGCAUCA
B7: chr2:136389457:136389458:+_ENSG00000048991_ENST00000409478|hu_hu|motif|central (ssRNA)
RNA: GGGAGUUCUACAGUCCGACGAUCCUGAUCAACAUUGUGGUCUAAUCCAAAGUAAGCGGCUACUCUGUGUAAUAGCAUCCGGUGGUAAGAUGUCAUUGGGGGGAAUUUUUUACGUGGAGACUCAUUAUUACCAAUGAAAUCUAACAACAGAGGAUUGAGCAUCA
B8: chr1:24083500:24083501:+_ENSG00000011007_ENST00000418390|hu_hu|motif|central (ssRNA)
RNA: GGGAGUUCUACAGUCCGACGAUCACUGCUGGUGCUUGGGCCAUCAUAGGCCGGCUCCUCAGGGCUGGGGUUAAAGCUGAUGCGGCUGGCGGAAGCAUGGCUGCUUCCCAUGGGGUACGGGGCUGGCUUGAUCUUGAUUUUCUCCAACAGAGGAUUGAGCAUCA
B9: chr11:29608197:29608198:+_ENSMUSG00000020458_ENSMUST00000102843|mus_mus|FALSE|FALSE (ssRNA)
RNA: GGGAGUUCUACAGUCCGACGAUCUGGAAUUUCAUUAGAUGCAGCAUCUUUUGUAAUAUGUAAAUUGGGCUGAAAAGACUCUAAAUAUGGCUUUCCUACCUCCUGAGGUGAAGCACUAAGUCUCUCCUUAUGUUUGUGUUGUGUCAACAGAGGAUUGAGCAUCA
B10: chr3:105540709:105540710:-_ENSMUSG00000068798_ENSMUST00000090678|mus_hu|FALSE|FALSE (ssRNA)
RNA: GGGAGUUCUACAGUCCGACGAUCUCUGACCAGGUCAUAAAAUAUCUCAUUAACAUUGAUCUUUGACUUUGCAGAAGAUUCUAAAAAGGCACAGUUACACCACUGUCUUGCUAAAUUCUGGCCCUGCUCUUUGCCAACUACUCGCAACAGAGGAUUGAGCAUCA
B11: chr2:151796264:151796265:-_ENSMUSG00000027459_ENSMUST00000062047|mus_mus|FALSE|FALSE (ssRNA)
RNA: GGGAGUUCUACAGUCCGACGAUCUGUUCGGCUGGCCUCAGAUGGGGACACAGGACUAUCACACAAGUUGAUGAGGCUGCUAAGGAUGUCGAGGUCCAGUUGGGGCCGGCGGCCAGAACAGGGCAGGACUCGGCGACUGGGUGUCAACAGAGGAUUGAGCAUCA
B12: chr6:109703465:109703466:-_ENSG00000135535_ENST00000310786|hu_mus|FALSE|FALSE (ssRNA)
RNA: GGGAGUUCUACAGUCCGACGAUCUUCUGGUAGCACGGUGGGCAUUUGCGUCGUCGGGACCACUUUGGUGGUCGUGGUCGGCACCUCGGUCACGUUGGGAGCCAGGGUGGUGAUGUUGGGCUGCGCGGCCGAGACGCAGAGCACCAACAGAGGAUUGAGCAUCA
B13: chr4:120733482:120733483:-_ENSMUSG00000043207_ENSMUST00000058754|mus_hu|FALSE|FALSE (ssRNA)
RNA: GGGAGUUCUACAGUCCGACGAUCGUUUUAAGAAAUGAAUUAUUAAAAUCAUUUUUAAAAUGACAUAUUAAAUGUAUUUAAAUCUGGGCUUUUCUGUACUUAAUUUUUCUUCUAAAAAAAAGUUUAAAAACAUCAAGAGCUGGACAACAGAGGAUUGAGCAUCA
B14: chr12:8716970:8716971:+_ENSMUSG00000020594_ENSMUST00000111122|mus_mus|motif|central (ssRNA)
RNA: GGGAGUUCUACAGUCCGACGAUCUGGAGAAGCCUUGCCUUUUUGAUCUCCUUUCUCAGGUCCAUCUGUUUCAGCAUCUCGGGUACCAAAAGUUCCCUUCCUAAAUCGAGAAUCCAAUUUAUCAGCAGGAGAGGAACUUAAUACCAACAGAGGAUUGAGCAUCA
B15: chr1:168153195:168153196:+_ENSG00000143155_ENST00000367833|hu_hu|motif|central (ssRNA)
RNA: GGGAGUUCUACAGUCCGACGAUCUAAAACGUUGUCUCCAAACAUCAUUUCAGGGAGAGAUGGCAUAUGUAAUUCAUCGGCGGAUUUCUCCACAUCCGCCGACUUCAUGAUGUGGGUCUUGGACGCCGUCAGCUUCCAGGGCCCCAACAGAGGAUUGAGCAUCA
B16: chr16:15112699:15112700:+_ENSG00000179889_ENST00000396410|hu_hu|FALSE|FALSE (ssRNA)
RNA: GGGAGUUCUACAGUCCGACGAUCCCACAGAGGCAGGGCACGGAGUUUGUCUGUGGGCUUAUUUGAUGUAAGACCAGCAACUAAAGUCAAGGCAGGGUCAUCGUGUUUAUACAGUGUCACCGCAGGAACAGCUGGCAAACCCAGCAACAGAGGAUUGAGCAUCA
B17: chr1:235599081:235599082:+_ENSG00000116957_ENST00000366601|hu_hu|motif|central (ssRNA)
RNA: GGGAGUUCUACAGUCCGACGAUCCAGGUGGGCUAUCAGAUACAGCUGAUUUUCAUCAAUUAAUUGAUUAGAGGAAAGAUCGGAUAACUUGACUGUCUGGAGAACAUCUGUUGGCCUUUCGGAAAUGAAAAUGUUGUUAGACUCCAACAGAGGAUUGAGCAUCA
B18: chr5:6374528:6374529:-_ENSG00000133398_ENST00000255764|hu_mus|FALSE|FALSE (ssRNA)
RNA: GGGAGUUCUACAGUCCGACGAUCAGCUAGAGCCCUCUCCAGGCAUUCUUUGGUGUAGAGCUGGGGAUUCCGACCUUGAUCAAUGUAUUCAAAAACUUCCAGAGGCACCGUGAUAUCGUGCAGCUGCUGUCUGCAUUUAUCUAUCAACAGAGGAUUGAGCAUCA
B19: chr2:61275951:61275952:+_ENSG00000162928_ENST00000295030|hu_mus|FALSE|FALSE (ssRNA)
RNA: GGGAGUUCUACAGUCCGACGAUCGCUUUCAUUCAACUGCAAAUUAAUUUCUCUGUAAGAAAUGAUUUUUUAAAAUACUCUAAAAUAUUGUUCACCUGCCCACAAACAUGAAACACAUCAAAGAUCUUGUUUGUCUCCAUUUUUCAACAGAGGAUUGAGCAUCA
B20: chr11:100882373:100882374:+_ENSMUSG00000019302_ENSMUST00000044721|mus_mus|mus_mus_mus_hu_True|1_108 (ssRNA)
RNA: GGGAGUUCUACAGUCCGACGAUCUUCCUGGUUAGUGUUGAUUUCCUUCAGUUCAUUUUCAAUCUUCUCAAAAUUGGCCUCUAAGUCAAUCAUGUCCCGGGGGAAGGGAACCUCUGGGUUUUCACCGGUGUCCAUAAUUGGGAUCAACAGAGGAUUGAGCAUCA
B21: 80927136_80929697_1061_3pUTR_ENSMUSG00000034818_ENSMUST00000118763|mouse|control|control (ssRNA)
RNA: GGGAGUUCUACAGUCCGACGAUCGGGCGCGAUGGCCGCGGUGGGAUACAUGGCUGUGUACUGCUGGACUCCGGAGAAGGCAGGAUGGAGGGUCUCUGCCACAGUGGGGCUCUGAGCUGGGUAGGGCACAAGGCCAUUGGCAUACAACAGAGGAUUGAGCAUCA
B22: chr3:184040909:184040910:+_ENSG00000114867_ENST00000411531|hu_hu|FALSE|FALSE (ssRNA)
RNA: GGGAGUUCUACAGUCCGACGAUCGCCAAGGUUGGCAAAGGAUGGAGUGAAGUCUGGGCCACAAUUUAUGCCUUGUAGUCUAGUGGGAUCCAGUGGCCGCAGUGGUGUUUUAUUGGCCUUGUCCAGCACCACGUCACUGAUAUGCAACAGAGGAUUGAGCAUCA

These binders were tested against T1, UNK ZnF1-3 (assay: nsRBNS (natural sequence RNA bind-n-seq); RBNS binding buffer (assumed for nsRBNS): 25 mM Tris pH 7.5, 150 mM KCl, 3 mM MgCl2, 0.01% Triton X-100, 500 ug/ml BSA, 20 U/ml SUPERase-In, 4 C; UNK is unkempt and MSI1 is Musashi-1; names of the RNAs are library labels; protein concentration not given here; high values mean tight binding).

Binder | binding signal [enrichment R]
B1 | 0.832
B2 | 0.843
B3 | 1.78
B4 | 1.01
B5 | 1.4
B6 | 0.844
B7 | 1.15
B8 | 0.797
B9 | 1.73
B10 | 1.02
B11 | 0.722
B12 | 0.574
B13 | 1.75
B14 | 0.92
B15 | 0.536
B16 | 1.09
B17 | 1.44
B18 | 1.61
B19 | 1.46
B20 | 0.771
B21 | 1.21
B22 | 0.788
